Among all 310,000 compounds or so, about 2,200 (0.71%) showed an effect of 50% or more. Effects have a minus sign here. The list shows a part of the results.
Target: human ether-à-go-go-related gene (hERG) potassium channel (human, UniProt Q12809)
Assay: primary screen, population patch clamp on CHO cells stably expressing hERG

Sequence of human ether-à-go-go-related gene (hERG) potassium channel (Q12809 whole entry, looked up): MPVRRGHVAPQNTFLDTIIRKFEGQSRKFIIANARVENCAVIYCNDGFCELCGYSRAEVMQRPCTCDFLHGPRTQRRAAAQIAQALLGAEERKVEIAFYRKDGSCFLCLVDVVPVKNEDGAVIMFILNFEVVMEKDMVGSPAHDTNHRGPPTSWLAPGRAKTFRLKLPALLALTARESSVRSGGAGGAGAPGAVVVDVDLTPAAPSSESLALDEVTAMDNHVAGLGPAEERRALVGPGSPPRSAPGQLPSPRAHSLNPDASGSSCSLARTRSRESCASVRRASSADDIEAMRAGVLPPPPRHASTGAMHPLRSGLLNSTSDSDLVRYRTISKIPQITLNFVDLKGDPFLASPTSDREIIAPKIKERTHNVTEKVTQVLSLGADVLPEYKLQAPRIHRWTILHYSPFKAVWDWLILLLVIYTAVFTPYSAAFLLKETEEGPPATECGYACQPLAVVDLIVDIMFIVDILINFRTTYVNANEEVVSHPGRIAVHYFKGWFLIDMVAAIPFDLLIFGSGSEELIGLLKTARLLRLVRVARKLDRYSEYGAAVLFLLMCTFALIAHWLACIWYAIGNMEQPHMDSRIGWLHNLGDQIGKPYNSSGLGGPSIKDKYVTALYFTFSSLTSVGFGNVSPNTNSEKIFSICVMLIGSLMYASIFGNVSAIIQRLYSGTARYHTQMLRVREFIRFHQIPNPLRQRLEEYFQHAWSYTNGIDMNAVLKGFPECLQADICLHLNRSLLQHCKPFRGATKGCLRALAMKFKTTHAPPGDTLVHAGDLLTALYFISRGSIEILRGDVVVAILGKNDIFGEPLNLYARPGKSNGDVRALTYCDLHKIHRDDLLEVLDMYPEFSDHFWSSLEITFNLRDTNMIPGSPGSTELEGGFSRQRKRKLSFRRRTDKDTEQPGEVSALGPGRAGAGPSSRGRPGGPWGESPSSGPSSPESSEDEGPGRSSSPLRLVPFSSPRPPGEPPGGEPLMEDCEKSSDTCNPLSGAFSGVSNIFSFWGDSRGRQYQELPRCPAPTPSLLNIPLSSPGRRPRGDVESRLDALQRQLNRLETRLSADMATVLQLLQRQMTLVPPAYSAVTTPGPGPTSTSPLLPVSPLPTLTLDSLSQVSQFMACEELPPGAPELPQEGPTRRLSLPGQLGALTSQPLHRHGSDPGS

First: COC(=O)c1cc(C(=O)OCC(=O)NCc2ccc3c(c2)OCO3)cc([N+](=O)[O-])c1
Second: CN(c1ccccc1)S(=O)(=O)c1ccc(Cl)c(C(=O)OCC(=O)N2CCOCC2)c1
The “hERG current change (%, negative = inhibition) at 1uM” value of the first is higher: 8.19% for the first, -0.507% for the second.

First: CCCN1C2CCCC1CC(NC(=O)Nc1ccc(C(C)C)cc1)C2 (stereo not shown)
Second: O=C(COC(=O)[C@@H]1CCCN1S(=O)(=O)c1ccc(Cl)cc1)NC1CC1
The “hERG current change (%, negative = inhibition) at 1uM” value of the first is higher: 14.2% for the first, 12.1% for the second.

First: O=c1[nH]c(Nc2ccc3c(c2)OCCO3)nnc1Cc1ccc(Cl)cc1
Second: CC(CC(=O)N1CCN(c2cccc(Cl)c2)CC1)S(=O)(=O)c1ccc2c(c1)NC(=O)CO2 (stereo not shown)
The “hERG current change (%, negative = inhibition) at 1uM” value of the first is higher: 24.5% for the first, -23.8% for the second.

Going from `CC(C)(C)OC(=O)NCCCC[C@H](NC(=O)c1nc[nH]c1C(=O)N1CCc2ccccc2C1)C(=O)OC(C)(C)C` to `COC(=O)c1c(C)[nH]c(C(=O)C(C)OC(=O)C2CC(=O)N(c3ccc(C)cc3)C2)c1C` (stereo not shown), the “hERG current change (%, negative = inhibition) at 1uM” value falls from 3.3% to 2.54%.

Going from `CCN(Cc1ccncc1)Cc1ccc(Br)cc1.O=C(O)C(=O)O` to `CN(CC(=O)Nc1c(Cl)cccc1Cl)C(=O)c1ccccc1Cc1ccccc1`, the “hERG current change (%, negative = inhibition) at 1uM” value falls from 14% to 8.96%.

First: CN1C(=O)CC(P(=O)(c2ccccc2)c2ccccc2)N(C)C1=O (stereo not shown)
Second: CCC(C)NC(=O)c1nn(Cc2ccccc2)c(=O)c2ccccc12 (stereo not shown)
The “hERG current change (%, negative = inhibition) at 1uM” value of the first is lower: 10.5% for the first, 10.8% for the second.

First: COc1ccc(CCNc2oc(-c3ccc(C)cc3)nc2C#N)cc1OC
Second: COc1ccc(/C=N/OCC(=O)Nc2nc3ccccc3s2)cc1OC
The “hERG current change (%, negative = inhibition) at 1uM” value of the first is lower: 14.2% for the first, 15.4% for the second.

First: CC(O)CN1C(=O)C(CC(=O)Nc2ccc(Cl)cc2)SC1=Nc1ccccc1 (stereo not shown)
Second: CC1(c2ccccc2Cl)NC(=O)N(CC(=O)Nc2ccc(N3CCCCC3)cc2)C1=O (stereo not shown)
The “hERG current change (%, negative = inhibition) at 1uM” value of the first is higher: 14.1% for the first, 2.86% for the second.

First: O=C(COC(=O)Cc1ccc(S(=O)(=O)N2CCOCC2)s1)NCCc1ccccc1
Second: O=C(CSc1ccccn1)Nc1ccc(N2CCOCC2)cc1
The “hERG current change (%, negative = inhibition) at 1uM” value of the first is lower: -2.58% for the first, 8% for the second.

Going from `CN(C)CCNC(=S)NC1CCCCC1` to `CCCNC(=O)Cn1c(=O)n(CC(=O)N2CCCCC2)c(=O)c2sccc21`, the “hERG current change (%, negative = inhibition) at 1uM” value rises from 14.2% to 14.7%.

Going from `CCCCC1(O)CC(C(F)(F)F)=NN1C(=O)COc1ccccc1` (stereo not shown) to `CCN(CC(=O)Nc1ccccc1OC)C(=O)/C=C/c1cccs1`, the “hERG current change (%, negative = inhibition) at 1uM” value falls from 6.76% to 2.76%.

Going from `CCCOc1ccc(-c2c(C(=O)N/N=C/c3ccc(C)o3)nnn2-c2nonc2N)cc1` to `COCCCNC(=O)c1c(N)n(Cc2ccco2)c2nc3ccccc3nc12`, the “hERG current change (%, negative = inhibition) at 1uM” value falls from 19.4% to 11.5%.

Going from `CCOc1ccc(-c2noc(CCC(=O)NC)n2)cc1OCC` to `CCOC(=O)c1cc(CC)sc1NC(=O)CSc1nc2ccccc2c(=O)n1Cc1ccco1`, the “hERG current change (%, negative = inhibition) at 1uM” value rises from 2.24% to 3.44%.

First: CC1Cc2cc(/C(O)=C3/C(=O)C(=O)N(Cc4ccco4)C3c3cccs3)ccc2O1 (stereo not shown)
Second: Nc1cccc2c1C(=O)N(Cc1nnc(-c3ccccc3Br)o1)C2=O
The “hERG current change (%, negative = inhibition) at 1uM” value of the first is lower: 1.52% for the first, 8.68% for the second.

First: O=C(O)CSc1nnc(-c2cc3ccccc3o2)n1-c1ccccc1
Second: Cc1ccccc1NC(=S)c1nc2ccccc2[nH]1
The “hERG current change (%, negative = inhibition) at 1uM” value of the first is lower: 9.3% for the first, 12.5% for the second.

First: COc1ccc2c(c1OC)C(=O)OC2n1c(O)c(N=NC(C)=O)c2ccccc21 (stereo not shown)
Second: NC(=O)c1ccc(N=Nc2c(O)c3ccccc3[nH]c2=O)cc1
The “hERG current change (%, negative = inhibition) at 1uM” value of the first is lower: 4.35% for the first, 8.29% for the second.

First: CC(=O)Nn1c(C)nnc1-n1nc(C)cc1C
Second: Cc1cc([N+](=O)[O-])cnc1NC(C)c1ccccc1 (stereo not shown)
The “hERG current change (%, negative = inhibition) at 1uM” value of the first is higher: 14% for the first, 7.3% for the second.

Compared with `COc1cccc(/C=N/NC(=S)NCCc2ccccc2)c1OC`, `COc1ccccc1/C=C/CN1CCC(CO)(Cc2ccccc2)CC1` is lower in “hERG current change (%, negative = inhibition) at 1uM” value: 16.3% for the first, 0.366% for the second.

First: O=C(O)C1CCCN1c1nc(-c2ccc(Cl)c(Cl)c2)cc(C(F)(F)F)n1 (stereo not shown)
Second: CN(Cc1ccccn1)C(=O)CC1C(=O)NCCN1Cc1ccc(F)cc1Cl (stereo not shown)
The “hERG current change (%, negative = inhibition) at 1uM” value of the first is lower: 7.97% for the first, 14.9% for the second.

Going from `Cc1cccc(NC(=O)CN(C)S(=O)(=O)c2cccc3cccnc23)c1C` to `CCOC(=O)c1ccc(NC(=O)c2cccc(S(=O)(=O)N3CCN(C(C)=O)CC3)c2)cc1`, the “hERG current change (%, negative = inhibition) at 1uM” value rises from 4.71% to 10%.

Going from `O=[N+]([O-])c1cccc(C(=Nc2ccccc2)NO)c1` to `C=CCN(CC=C)S(=O)(=O)c1ccc2nc(NC(=O)C(C)C)sc2c1`, the “hERG current change (%, negative = inhibition) at 1uM” value rises from 0.619% to 1.18%.

For `CN(C)N1C(N)=C(C#N)C(c2ccc(Br)cc2)C2=C1CC(C)(C)CC2=O` (stereo not shown), the “hERG current change (%, negative = inhibition) at 1uM” value was 16.5%.

Source: article PMC4336329 (PLoS ONE, 2015)
